Article PMC4336329 (PLoS ONE, 2015)
The whole screen tested about 310,000 compounds, of which about 14,000 (4.5%) showed an effect of 50% or more. The effect is printed as a negative number. This is one part of the list.

These compounds were tested against human ether-à-go-go-related gene (hERG) potassium channel (human, UniProt Q12809) (assay: primary screen, population patch clamp on CHO cells stably expressing hERG).
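Note: peak tail current of the secondary pulse compared with the same well before compound.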

Sequence of human ether-à-go-go-related gene (hERG) potassium channel (Q12809 whole entry, looked up): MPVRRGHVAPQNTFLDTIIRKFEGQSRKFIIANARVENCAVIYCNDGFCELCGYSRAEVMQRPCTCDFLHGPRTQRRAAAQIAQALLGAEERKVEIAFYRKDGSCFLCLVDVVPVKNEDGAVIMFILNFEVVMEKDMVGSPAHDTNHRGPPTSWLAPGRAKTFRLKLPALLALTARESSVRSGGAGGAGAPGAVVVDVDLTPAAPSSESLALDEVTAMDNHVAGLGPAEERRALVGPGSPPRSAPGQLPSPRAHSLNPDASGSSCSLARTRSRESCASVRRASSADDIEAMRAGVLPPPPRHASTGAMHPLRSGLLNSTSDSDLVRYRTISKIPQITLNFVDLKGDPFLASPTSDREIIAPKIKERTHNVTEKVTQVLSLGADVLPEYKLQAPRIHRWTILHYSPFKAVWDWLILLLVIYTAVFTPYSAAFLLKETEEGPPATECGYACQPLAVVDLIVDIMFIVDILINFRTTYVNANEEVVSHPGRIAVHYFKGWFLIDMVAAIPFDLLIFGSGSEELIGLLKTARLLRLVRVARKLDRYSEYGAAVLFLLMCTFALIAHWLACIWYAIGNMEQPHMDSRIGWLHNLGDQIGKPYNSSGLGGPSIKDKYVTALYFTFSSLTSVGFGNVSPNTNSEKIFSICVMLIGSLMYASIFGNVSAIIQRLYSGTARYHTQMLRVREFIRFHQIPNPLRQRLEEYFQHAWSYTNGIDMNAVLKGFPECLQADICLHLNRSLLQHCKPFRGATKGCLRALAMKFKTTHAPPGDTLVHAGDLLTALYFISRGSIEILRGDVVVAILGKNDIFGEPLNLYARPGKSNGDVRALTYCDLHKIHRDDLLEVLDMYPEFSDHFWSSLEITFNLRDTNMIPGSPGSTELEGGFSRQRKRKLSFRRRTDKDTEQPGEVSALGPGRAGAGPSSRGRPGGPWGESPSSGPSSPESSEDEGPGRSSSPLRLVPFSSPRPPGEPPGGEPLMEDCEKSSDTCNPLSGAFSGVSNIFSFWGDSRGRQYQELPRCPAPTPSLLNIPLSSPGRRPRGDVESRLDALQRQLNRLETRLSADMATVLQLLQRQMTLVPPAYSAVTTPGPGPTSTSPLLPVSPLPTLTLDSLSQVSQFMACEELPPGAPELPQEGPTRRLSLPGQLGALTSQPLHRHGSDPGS

Compound	hERG current change (%, negative = inhibition) at 10uM [%]
CCOC(=O)c1ccc(N=C2C(=S)N(c3ccc(C(=O)OCC)cc3)C(=N)N2/N=C/c2ccccc2)cc1	-52.7
Cc1cccc(NC(=O)Nc2c(C)[nH]c(=O)[nH]c2=O)c1C	13
CC(NC(=O)CC1Sc2ccccc2NC1=O)c1ccccc1 (stereo not shown)	4.03
COc1ccc2oc(C)c(C(=O)c3ccccc3)c2c1	-7.34
CCOC(=O)/C=C1\NC(C)(C)Cc2cc(OC)c(OC)cc21	1.72
COCCn1c(SC(C)C(=O)Nc2ccc(Cl)cn2)nnc1-c1ccncc1 (stereo not shown)	4.13
CCC(=O)N/N=C/c1ccc(-c2ccc([N+](=O)[O-])cc2)o1	4.5
Cn1ncc2c(Nc3ccccc3Br)ncnc21	9.32
O=C1C2CCCN2C(=S)N1Cc1ccccc1 (stereo not shown)	13
Cc1ccccc1S(=O)(=O)Cc1ccc(C(=O)NCc2ccco2)o1	-32.2
COc1ccc(C(=O)NC(=S)N2CCC(C)CC2)cc1Br	17.2
CN(Cc1ccccc1)C(=O)COC(=O)c1ccc(Cl)cc1N	-4.58
CCCCCCCC(=O)N1CCN(c2cc3c(cc2F)c(=O)c(C(=O)O)cn3CC)CC1	-25.1
Cc1nc2ccc(Cl)cc2c(=O)n1-c1cccc(Cl)c1	3.78
COC(=O)c1sc(NC(=O)/C=C/c2ccc(C)cc2)nc1C	13.9
COC(=O)c1ccccc1NC(=O)CSc1nnc(C(CO)NC(=O)c2ccccc2)n1C (stereo not shown)	-3.17
COc1ccc(-c2cc(C3CC3)nc(SCC(=O)c3cccs3)c2C#N)cc1	11.4
CCCCC(=O)Nc1ccc(NC(=S)NC(=O)CCCCl)cc1OC	8.67
O=C(NC(=S)NCc1ccccc1)c1ccc(Br)o1	-7.42
Cc1nn(Cc2c(F)c(F)c(F)c(F)c2F)c(C)c1NC(=O)c1cccc(COc2ccc(Cl)cc2)c1	2.49
CC(Sc1ccccc1)C(=O)NN=C1CCCC1 (stereo not shown)	11.7
COc1ccc(C2C(Oc3ccccc3C)C(=O)N2Cc2ccc(F)cc2)cc1OC (stereo not shown)	-12.5
Cl.N[C@@H](Cc1ccccc1)c1nnc(SC/C=C/c2ccccc2)o1	-13.1
CC(C)(C)c1ccc(/C=N/NC(=O)CN2CCS(=O)(=O)CC2)cc1	-9.12
O=C(OCn1nnc2ccccc2c1=O)c1cc(-c2ccccc2)nc2ccccc12	6.74
